# The other results are listed elsewhere or left out.
# How the values were obtained:
# Assay in all cases: glycan array binding signal (z-score within array); higher = stronger binding
# Conditions in all cases: glycan notation: IUPAC condensed, linker removed
# [1] = molecular target: Gal(a1-3)Gal(b1-3)GlcNAc(b1-6)GalNAc
# How it was run: (§1)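 Glycan array binding is given as a within-array Z-score, which can be read as non-binding when negative. The arrays, 3228 of them, came from the Consortium for Functional Glycomics database and were retained only where the protein sequence was available. Z-scores were averaged across arrays of the same protein sequence at different concentrations or buffers and across linkers.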
# [2] = molecular target: Gal(a1-3)Gal(b1-3)[Fuc(a1-4)]GlcNAc(b1-2)Man(a1-3)[Gal(a1-3)Gal(b1-3)[Fuc(a1-4)]GlcNAc(b1-2)Man(a1-6)]Man(b1-4)GlcNAc(b1-4)GlcNAc
# How it was run: as §1
# Gal(a1-3)Gal(b1-4)Glc = molecular target: Gal(a1-3)Gal(b1-4)Glc
# How it was run: as §1
# Gal(a1-3)Gal(b1-4)GlcNAc = molecular target: Gal(a1-3)Gal(b1-4)GlcNAc
# How it was run: as §1
# [3] = molecular target: Gal(a1-3)Gal(b1-4)GlcNAc(b1-2)Man
# How it was run: as §1
# [4] = molecular target: Gal(a1-3)Gal(b1-4)GlcNAc(b1-2)Man(a1-3)[Gal(a1-3)Gal(b1-4)GlcNAc(b1-2)Man(a1-6)]Man(b1-4)GlcNAc(b1-4)GlcNAc
# How it was run: as §1
# [5] = molecular target: Gal(a1-3)Gal(b1-4)GlcNAc(b1-3)GalNAc
# How it was run: as §1
# [6] = molecular target: Gal(a1-3)Gal(b1-4)GlcNAc(b1-6)GalNAc
# How it was run: as §1
# [7] = molecular target: Gal(a1-3)Gal(b1-4)[Fuc(a1-3)]GalNAc
# How it was run: as §1
# [8] = molecular target: Gal(a1-3)Gal(b1-4)[Fuc(a1-3)]GlcNAc
# How it was run: as §1
# [9] = molecular target: Gal(a1-3)Gal(b1-4)[Fuc(a1-3)]GlcNAc(b1-2)Man(a1-3)[Gal(a1-3)Gal(b1-4)[Fuc(a1-3)]GlcNAc(b1-2)Man(a1-6)]Man(b1-4)GlcNAc(b1-4)GlcNAc
# How it was run: as §1
# Gal(a1-3)GalNAc = molecular target: Gal(a1-3)GalNAc
# How it was run: as §1
# Gal(a1-3)GlcNAc = molecular target: Gal(a1-3)GlcNAc
# How it was run: as §1
# [10] = molecular target: Gal(a1-3)[Gal(a1-4)]Gal(b1-4)GlcNAc
# How it was run: as §1
# [11] = molecular target: Gal(a1-4)Gal(b1-3)GlcNAc(b1-2)Man(a1-3)[Gal(a1-4)Gal(b1-3)GlcNAc(b1-2)Man(a1-6)]Man(b1-4)GlcNAc(b1-4)GlcNAc
# How it was run: as §1
# Gal(a1-4)Gal(b1-4)Gal = molecular target: Gal(a1-4)Gal(b1-4)Gal
# How it was run: as §1
# Gal(a1-4)Gal(b1-4)GalNAc = molecular target: Gal(a1-4)Gal(b1-4)GalNAc
# How it was run: as §1
# Gal(a1-4)Gal(b1-4)Glc = molecular target: Gal(a1-4)Gal(b1-4)Glc
# How it was run: as §1
# Gal(a1-4)Gal(b1-4)GlcNAc = molecular target: Gal(a1-4)Gal(b1-4)GlcNAc
# How it was run: as §1
# [12] = molecular target: Gal(a1-4)Gal(b1-4)GlcNAc(b1-2)Man(a1-3)[Gal(a1-4)Gal(b1-4)GlcNAc(b1-2)Man(a1-6)]Man(b1-4)GlcNAc(b1-4)GlcNAc
# How it was run: as §1
# [13] = molecular target: Gal(a1-4)Gal(b1-4)GlcNAc(b1-3)Gal(b1-4)Glc
# How it was run: as §1
# Gal(a1-4)GlcNAc = molecular target: Gal(a1-4)GlcNAc
# How it was run: as §1
# Gal(a1-6)Glc = molecular target: Gal(a1-6)Glc
# How it was run: as §1
# Gal(b1-2)Gal = molecular target: Gal(b1-2)Gal
# How it was run: as §1
# Gal(b1-3)Gal = molecular target: Gal(b1-3)Gal
# How it was run: as §1
# Gal(b1-3)Gal(b1-4)GlcNAc = molecular target: Gal(b1-3)Gal(b1-4)GlcNAc
# How it was run: as §1
# Gal(b1-3)GalNAc = molecular target: Gal(b1-3)GalNAc
# How it was run: as §1
# [14] = molecular target: Gal(b1-3)GalNAc(a1-3)[Fuc(a1-2)]Gal(b1-4)Glc
# How it was run: as §1
# [15] = molecular target: Gal(b1-3)GalNAc(a1-3)[Fuc(a1-2)]Gal(b1-4)GlcNAc
# How it was run: as §1
# Gal(b1-3)GalNAc(b1-3)Gal = molecular target: Gal(b1-3)GalNAc(b1-3)Gal
# How it was run: as §1
# [16] = molecular target: Gal(b1-3)GalNAc(b1-3)Gal(a1-4)Gal(b1-4)Glc
# How it was run: as §1
# [17] = molecular target: Gal(b1-3)GalNAc(b1-3)Gal(b1-4)Glc
# How it was run: as §1
# [18] = molecular target: Gal(b1-3)GalNAc(b1-3)Gal(b1-4)GlcNAc
# How it was run: as §1
# [19] = molecular target: Gal(b1-3)GalNAc(b1-4)Gal(b1-4)Glc
# How it was run: as §1
# [20] = molecular target: Gal(b1-3)GalNAc(b1-4)[Neu5Ac(a2-3)]Gal(b1-4)Glc
# How it was run: as §1
# Gal(b1-3)GlcNAc = molecular target: Gal(b1-3)GlcNAc
# How it was run: as §1
# [21] = molecular target: Gal(b1-3)GlcNAc(a1-3)Gal(b1-4)GlcNAc
# How it was run: as §1
# [22] = molecular target: Gal(b1-3)GlcNAc(a1-6)Gal(b1-4)GlcNAc
# How it was run: as §1
binder,measurement,setting,value
"UEA-I (Ulex europaeus), P22972 (protein) SDDLSFKFKNFSQNGKDLSFQGDASVIETGVLQLNKVGNNLPDETGGIARYIAPIHIWNCNTGEVASFITSFSFFMETSANPKAATDGLTFFLAPPDSPLRRAGGYFGLFEDTKDNDSSYQTVAVEFDTIGSPVNFDDPGFPHIGIDVNRVKSINAERWNKRYGLNNVANVEIIYEASSKTLTASLTYPSDQTSISVTSIVDLKEILPEWVSVGFSGGTYIGRQATHEVLNWYFTSNLINTNS",glycan array binding signal (z-score),[1],-0.2
same,glycan array binding signal (z-score),[2],-0.008
same,glycan array binding signal (z-score),Gal(a1-3)Gal(b1-4)Glc,-0.131
same,glycan array binding signal (z-score),Gal(a1-3)Gal(b1-4)GlcNAc,-0.182
same,glycan array binding signal (z-score),[3],-0.155
same,glycan array binding signal (z-score),[4],-0.163
same,glycan array binding signal (z-score),[5],-0.179
same,glycan array binding signal (z-score),[6],-0.264
same,glycan array binding signal (z-score),[7],-0.621
same,glycan array binding signal (z-score),[8],-0.222
same,glycan array binding signal (z-score),[9],-0.136
same,glycan array binding signal (z-score),Gal(a1-3)GalNAc,-0.177
same,glycan array binding signal (z-score),Gal(a1-3)GlcNAc,-0.568
same,glycan array binding signal (z-score),[10],-0.184
same,glycan array binding signal (z-score),[11],-0.16
same,glycan array binding signal (z-score),Gal(a1-4)Gal(b1-4)Gal,-0.37
same,glycan array binding signal (z-score),Gal(a1-4)Gal(b1-4)GalNAc,-0.556
same,glycan array binding signal (z-score),Gal(a1-4)Gal(b1-4)Glc,-0.134
same,glycan array binding signal (z-score),Gal(a1-4)Gal(b1-4)GlcNAc,-0.149
same,glycan array binding signal (z-score),[12],0.015
same,glycan array binding signal (z-score),[13],-0.195
same,glycan array binding signal (z-score),Gal(a1-4)GlcNAc,-0.168
same,glycan array binding signal (z-score),Gal(a1-6)Glc,-0.181
same,glycan array binding signal (z-score),Gal(b1-2)Gal,-0.201
same,glycan array binding signal (z-score),Gal(b1-3)Gal,-0.209
same,glycan array binding signal (z-score),Gal(b1-3)Gal(b1-4)GlcNAc,-0.119
same,glycan array binding signal (z-score),Gal(b1-3)GalNAc,-0.15
same,glycan array binding signal (z-score),[14],-0.204
same,glycan array binding signal (z-score),[15],-0.231
same,glycan array binding signal (z-score),Gal(b1-3)GalNAc(b1-3)Gal,-0.216
same,glycan array binding signal (z-score),[16],-0.174
same,glycan array binding signal (z-score),[17],-0.373
same,glycan array binding signal (z-score),[18],-0.42
same,glycan array binding signal (z-score),[19],-0.113
same,glycan array binding signal (z-score),[20],-0.207
same,glycan array binding signal (z-score),Gal(b1-3)GlcNAc,-0.179
same,glycan array binding signal (z-score),[21],-0.286
same,glycan array binding signal (z-score),[22],-0.139

# Reference: the supplement of paper PMC8728848
